Measurements from PubChem BioAssay AID1963576 (National Center for Advancing Translational Sciences (NCATS), 2024).
In all, about 46,000 compounds went through this assay and about 60 (0.1%) were called active. Not shown: some 3% with an inconclusive outcome. Calls come from the whole dose curve; as a rule, active = well fitted inhibition curve with a large enough effect; inconclusive = small, poorly fitted or top-dose-only effect; inactive = no such curve, though single readings can be large or run the other way. This is one part of the list.

test: Primary qHTS assay for Inhibitors of ovarian cancer metastasis using an organotypic tumor microenvironment (TME) model.; note: nearly all actives have a fitted effect of over 65% in size;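 for activity change, negative = inhibition: plate controls were DMSO wells for no effect and tomatine positive control wells for full effect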; details: SKOV3ip1-GFP adhesion/invasion on 3D omental model, fluorescence; series mostly up to 45.8 µM; activity change, negative = inhibition: at the top concentration
Outline: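 Primary human omental fibroblast/mesothelial 3D culture pre-formed 48 h. SKOV3ip1-GFP cells added with compounds (0.36-46 umol/L), incubated 2 h RT/16 h 37 C, fixed; GFP cells quantified at 488/509 nm.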

outcome, inactive:
COc1ccc(Nc2cc(C)c3cc(NC(=O)c4ccccc4Cl)ccc3n2)cc1
Cc1ccc(NC(=O)Nc2nnc(SCC(=O)N3CCCCC3)s2)cc1
COc1ccc(N2CCN(S(=O)(=O)c3ccc(C4CCCCC4)cc3)CC2)cc1
CCOC(=O)c1ccccc1NC(=O)c1cn(CC(C)C)c(=O)c2cc(OC)c(OC)cc12
CN(C)c1ccc(CNC(=O)c2ccc(Cn3c(=O)c4cccn4c4cccnc43)cc2)cc1
COc1ccc(CNC(=O)CSc2ncc3c(n2)-c2ccc(Cl)cc2N(Cc2ccc(F)cc2)S3(=O)=O)cc1OC
CCOc1cc(Br)cc(C2NC(=O)c3c(sc4c3CCN(C)C4)N2)c1O (stereo not given)
CCc1ccc2ncc(C(=O)c3ccc(C)c(C)c3)c(N3CCC(C(N)=O)CC3)c2c1
Cc1cc(-c2nc3ncccc3o2)ccc1NC(=O)c1ccccc1Br
O=C(Cn1cnc(S(=O)(=O)N2CCCC2)c1)Nc1cccc(Br)c1
CC(=O)N1c2ccc(S(=O)(=O)N3CCCCCC3)cc2CC1C(=O)NCc1ccccc1C (stereo not given)
O=C(Cn1c(=O)n(Cc2ccccc2)c(=O)c2sc3ccccc3c21)Nc1ccccc1F
COc1ccccc1CNC(=O)CCCN1C(=O)CSc2c1c(C)nn2-c1ccccc1
COc1ccc(-n2nc(C(=O)N3CCN(c4ccccc4OC)CC3)c3c4ccccc4n(C)c3c2=O)cc1Cl
Cc1ccc(-n2c3nc(=O)[nH]c(=O)c-3cc3c(C)nn(-c4ccccc4)c32)cc1C
CCOC(=O)c1cccc(NS(=O)(=O)c2cc(-c3cnc(C4CC4)o3)ccc2C)c1
Cc1ccc2oc(-c3cccc(NC(=O)Cc4ccc(Cl)cc4)c3)nc2c1
CCOC(=O)c1c(-c2ccc(OC)cc2)oc2ccc(OCc3ccc(Br)cc3)cc12
CC(=O)c1ccc(N2CCN(C(=O)CCCCn3c(=O)[nH]c4ccsc4c3=O)CC2)cc1
Cc1ccc(N(CC(=O)Nc2ccc(Br)cc2)S(=O)(=O)c2cccs2)cc1
COc1ccc(S(=O)(=O)n2nc(C)c(S(=O)(=O)N3CCC(C)CC3)c2C)cc1OC
O=C(NCCc1ccc(F)cc1)C(=O)NCC(c1ccco1)S(=O)(=O)c1cccs1 (stereo not given)
Cc1ccc(N(Cc2cccs2)C(=O)c2ccccc2Cl)cc1
Cc1cccc(NC(=O)CSc2nc(-c3ccco3)cc(C(F)(F)F)n2)c1C

Activity change, negative = inhibition, inactive:
Fc1ccc(-c2noc3ncnc(NCCc4ccc(Cl)cc4)c23)cc1 -2.18%
COc1cccc(N2CC(NC(=O)c3cc4ccccc4o3)CC2=O)c1 (stereo not given) 9.71%
CCn1c2c(c(=O)n3ncc(C(=O)N4CCN(c5ccccc5)CC4)c13)CN(Cc1ccc(OC)cc1)CC2 4.52%
COc1ccc(OC)c(C2C(C(=O)Nc3ccc(C)cc3C)=C(C)Nc3c(C(=O)Nc4ccc(F)cc4)cnn32)c1 (stereo not given) -4.09%
CC(C)c1noc(-c2ccccc2OCC(=O)Nc2ccc([N+](=O)[O-])cc2)n1 -0.75%
O=C(CSc1nnc(-c2ccncc2)n1-c1ccccc1)Nc1ccc(F)cc1 32.8%
CCOC(=O)CCc1c(C)nc2c(-c3ccccc3)c(C)[nH]n2c1=O 8.12%
COc1ccc(Cl)cc1NC(=O)CSc1nc(=O)n(Cc2ccco2)c2c1CCC2 -19.2%
CS(=O)(=O)N1CCN(Cc2cc3nc(-c4cccc5[nH]ncc45)nc(N4CCOCC4)c3s2)CC1 -14.1%
Cc1ccc(OCC(=O)Nc2nnc(S(=O)(=O)N3CCc4ccccc43)s2)cc1 5.61%
Cc1ccc(-n2ncc3c(Nc4ccc(Oc5ccccc5)cc4)ncnc32)c(C)c1 -9.51%
COc1ccc(OC)c(-c2noc(CSc3nnc(-c4ccccc4)n3-c3ccccc3)n2)c1 -16.2%
CC(C)NCC(O)c1ccc(O)c(O)c1 (stereo not given) -16.1%
CC(C)(C)c1ccc(C(=O)NCC(c2ccco2)S(=O)(=O)c2ccc(F)cc2)cc1 (stereo not given) -6.64%
CCOC(=O)c1ccc(NC(=O)CSc2nnc3c4ccccc4n(CC)c3n2)cc1 2.71%
COc1ccc(-n2cnc3cc(C(=O)NC4CCCC4)ccc32)cc1 -4.79%
COc1ccc(Cn2c(C(=O)O)c(CNCc3ccco3)c3ccc(OC)cc32)cc1 -5.05%
O=C(CSc1c2c(nc3ccccc13)CCC2)Nc1ccc(F)cc1 -7.76%
COCCCNC(=O)CCCn1c(SCC(=O)c2ccc(F)cc2)nc2c(sc3ccccc32)c1=O 0.184%
CCCCN(CCCC)CCC(O)c1cc2c(Cl)cc(Cl)cc2c2cc(C(F)(F)F)ccc12 (stereo not given) 9.59%
COC(=O)c1ccccc1NC(=O)c1cnc(Nc2ccc(OC)cc2)c2ccccc12 33.2%
Cc1cccc(N2CCN(Cc3nnc(-c4ccccc4C)o3)CC2C)c1 (stereo not given) 0.0792%
Cc1ccc(Cn2c(CNC(=O)CCc3ccccc3)nc3cccnc32)cc1 -4.19%
CCCOc1ccc(C(=O)N(Cc2ccccc2Cl)C2CCS(=O)(=O)C2)cc1 (stereo not given) -6.97%
COc1ccc(C2=Nc3ccc(F)cc3NC(c3cccc(C(F)(F)F)c3)=N2)cc1 4.78%
COc1cc2nc(-c3ccc(N4CCN(C)CC4)cc3)nc(NCCN3CCOCC3)c2cc1OC 1%
CCCCOc1cccc(C(=O)N(Cc2ccc(N(C)C)cc2)C2CCS(=O)(=O)C2)c1 (stereo not given) -4.52%
COc1ccc(CCNC(=O)Cn2c(=O)n(-c3ccccc3)c(=O)c3c(C)c(C)sc32)cc1OC -6.01%
O=C(COc1ccc(F)cc1)NCC(c1ccc(Cl)cc1)N1CCCCC1 (stereo not given) -22.5%
Cc1ccc(CCNC(=O)CCCn2c(=O)c3ccccc3n(Cc3ccccc3C)c2=O)cc1 -23.2%
O=C(NC1CCCc2ccccc21)c1ccc2c(c1)sc1nc(-c3ccccc3)cn12 (stereo not given) 0.525%
O=C(Nc1ccc2c(c1)CCCN2C(=O)c1cccs1)c1ccccc1 -6.77%
CC(C)C1N=C2c3ccccc3N=C(SCC(=O)NCc3ccc(Cl)cc3)N2C1=O (stereo not given) -2.37%
CC(=O)N1CCOc2cc(S(=O)(=O)NCc3ccc(F)cc3)c(C)cc21 4.37%
CCCS(=O)(=O)c1nc(S(=O)(=O)c2ccc(C)cc2)c(NCc2ccccc2Cl)s1 21.7%
Cc1nc(N2CCCC2)c2c(C(=O)Nc3cccc(Cl)c3)c(C)oc2n1 -9.51%
Cc1cc(C)cc(NC(=O)Nc2ccc3nc(N4CCN(C)CC4)cc(C)c3c2)c1 4.48%
COc1cc(F)c(F)c(Nc2ccc(I)cc2F)c1NS(=O)(=O)C1(C[C@H](O)CO)CC1 -7.21%
CCOc1ccc(NC(=O)Cn2ccn3nc(-c4ccc(OC)c(OC)c4)cc3c2=O)cc1 -2.87%
CC(CNC(=O)CCc1cn(Cc2ccccc2Cl)c2ccccc12)c1ccccc1 (stereo not given) -5.39%
CCOc1ccccc1NC(=O)C1CCN(S(=O)(=O)c2cccs2)CC1 -7.9%
Cc1c(C(=O)NCc2cccc(Cl)c2)sc2nc[nH]c(=O)c12 6.03%
COc1cccc(Oc2nc(C)nc3c2oc2ccccc23)c1 -10.6%
Cc1ccsc1CN(C(=O)c1ccc(OCC(C)C)cc1)C1CCS(=O)(=O)C1 (stereo not given) -3.37%
CCc1ccc(NC(=O)c2ccc(F)c(S(=O)(=O)N3CCN(c4ccc(OC)cc4)CC3)c2)cc1 -4.36%
COc1ccc(NC(=O)Cn2cc(C(=O)c3ccccc3)c(=O)c3cc(OC)ccc32)c(OC)c1 12.6%
O=C(O)CCC(=O)Nc1sc2c(c1C(=O)Nc1ccccc1)CCCCC2 -6.42%
CC1(C)CC(=O)c2cc(C#N)c(=O)n(-c3ccc(Cl)cc3)c2C1 25.1%
CCOC(=O)c1c(S(=O)(=O)N2CCCC(C(=O)Nc3ccc(C)cn3)C2)c(C)n(C)c1C (stereo not given) -5.93%
Cc1ccc(Sc2c(C)nn(C(=O)c3ccc(Cl)cc3)c2C)cc1 -15.4%
Cc1c(C(=O)OC(C)C)sc(NC(=O)C2c3ccccc3Oc3ccccc32)c1C(=O)OC(C)C -0.347%
CCc1cnc2c(c1SCC(=O)c1ccc(Cl)cc1)c(=O)n(C)c(=O)n2C 4.45%
COc1ccc(Cn2c(=O)c3cccnc3n(CC(=O)Nc3c(C)cc(C)cc3C)c2=O)cc1 0.677%
CCSc1nnc(NC(=O)c2cc(=O)c3cc(C)c(C)cc3o2)s1 7.45%
CCOc1ccc(CNS(=O)(=O)c2cc3c(cc2C)NC(=O)CO3)cc1 0.292%
Cc1cccc(NC(=O)CSc2nc3ccccc3nc2N2CCOCC2)c1C 1.25%
COc1cc(OC)cc(C(=O)N2CC(=O)Nc3ccc(Cl)cc3C2c2ccccc2)c1 (stereo not given) -3.01%
CC(C)CCNC(=O)CCC(=O)NNc1nc2ccccc2c2nc(-c3ccccc3)nn12 14.2%
O=C(Nc1nnc2n1CCS2)c1ccccc1C(F)(F)F -8.36%
COc1cccc(C(=O)NCC(c2ccc3c(c2)OCO3)N2CCOCC2)c1 (stereo not given) -2.48%
CCOc1ccc(NC(=O)C(=O)NCc2ccco2)cc1 -5.7%
Brc1cccc(-c2cnn3c(-c4ccccc4)cc(-c4ccccc4)nc23)c1 -8.45%
O=C(Nc1ccc(Cl)c(C(F)(F)F)c1)C(Cc1ccccc1)NS(=O)(=O)c1ccc(Br)s1 (stereo not given) 9.37%
COc1ccc(C2=C(C)C(N3CCC(C(=O)Nc4ccc(F)cc4C)CC3)=NS2(=O)=O)cc1 -8.28%
COc1ccc2cc3cc(C(=O)NCc4ccccc4OC)oc3nc2c1 10.8%
CC1(C)CC(=O)c2cc(C(=O)Nc3ccccc3Cl)c(=O)n(-c3ccc(Cl)cc3)c2C1 1.64%
O=C(NCc1ccccc1)C(=O)NCC(c1cccs1)S(=O)(=O)c1ccccc1 (stereo not given) 5.54%
CCOC(=O)c1ccc(NC(=O)c2cc3sccc3n2Cc2ccc(Cl)cc2)cc1 -16%
Cc1ccc(-c2nc3ncccc3o2)cc1NC(=O)c1ccc(-c2ccc(Cl)cc2)o1 3.76%
Cc1cccc(N2CCN(S(=O)(=O)c3csc(C(N)=O)c3)CC2)c1C 9.65%
COc1ccc(C)cc1NC(=O)Cn1c(=O)n(Cc2nc(C)no2)c(=O)c2ccccc21 7.03%
